{"source": "PubChem BioAssay AID1240", "about": "(Sanford-Burnham Center for Chemical Genomics, 2008)", "note": "About 800 (1.6%) of roughly 50,000 compounds showed an effect of 50% or more. Some of the results follow."}
{"target": "Bcl-2-like protein 10 (Homo sapiens) (UniProt Q9HD36)", "sequence (Q9HD36 whole entry, looked up)": "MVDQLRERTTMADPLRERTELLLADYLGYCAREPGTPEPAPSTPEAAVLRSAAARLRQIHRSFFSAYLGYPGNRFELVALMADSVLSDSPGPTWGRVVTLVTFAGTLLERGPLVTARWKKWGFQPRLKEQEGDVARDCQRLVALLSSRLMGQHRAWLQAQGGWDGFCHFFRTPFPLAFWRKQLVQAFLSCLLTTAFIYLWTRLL", "assay": "TR3 peptide-Bcl-B binding displacers, biochemical primary FP assay, phenotype converters (AID 1240);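 note: 0% = Bcl-B with tracer peptide and DMSO and 100% = tracer peptide lacking Bcl-B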", "settings": "GST-Bcl-B / FITC-TR3 peptide fluorescence polarization; stronger effect = higher value; compound at 3.75 mg/L", "units": {"displacement": "%"}}
{"compound": "O=C(O)/C(=C/c1ccccc1)c1c(F)c(F)c(F)c(F)c1F", "displacement": -6.3}
{"compound": "COc1cccc(-n2c(C=C3C(=O)N(C(C)C)c4ccccc43)nc3ccccc3c2=O)c1", "displacement": -4}
{"compound": "COc1cc(/C=C2\\C(=O)N(c3ccccc3)N=C2C)c([N+](=O)[O-])cc1OC", "displacement": -11.5}
{"compound": "CC1=C(C(=O)Nc2ccccc2)C(c2ccc(F)cc2)N2C(=O)CSC2=N1", "note": "(stereo not drawn)", "displacement": -9.4}
{"compound": "O=C(c1ccco1)N1CCN(CCN2C(=O)c3cccc4cccc(c34)C2=O)CC1", "displacement": 16.9}
{"compound": "O=C(CN1C(=O)c2ccc([N+](=O)[O-])cc2C1=O)Nc1cc(Cl)ccc1C(=O)O", "displacement": 12.4}
{"compound": "O=C(O)CCCNS(=O)(=O)c1ccc(Br)c(C(=O)O)c1", "displacement": -3.7}
{"compound": "CC1(C)OC(=O)C(=Cc2ccc(I)o2)C(=O)O1", "displacement": 26.4}
{"compound": "Cc1ccc(C#CC#Cc2ccc(C)nc2)cn1", "displacement": 19.9}
{"compound": "Fc1ccccc1Cn1nnc(-c2ccccc2)n1", "displacement": -2.3}
{"compound": "NS(=O)(=O)c1ccc(NC(=S)NC(=O)c2ccc(Br)cc2)cc1", "displacement": 1}
{"compound": "COc1ccc(C2NC(=S)NC3=C2N2CCC3CC2)cc1", "note": "(stereo not drawn)", "displacement": -5.7}
{"compound": "c1cc(CN2CCN(C3CCCCCC3)CC2)ccn1", "displacement": -13.5}
{"compound": "Cc1ccc(N2C(=O)CC(Sc3ccc(F)cc3)C2=O)cc1", "note": "(stereo not drawn)", "displacement": 1.9}
{"compound": "CCc1ccc(-c2nnc(-c3ccccc3Cl)o2)cc1", "displacement": -1.7}
{"compound": "COC(=O)COc1ccc(/C=N/n2cnnc2)cc1OC", "displacement": -6.6}
{"compound": "CCCCN(CCCC)C(=O)c1ccc(Cl)cc1Cl", "displacement": -10.4}
{"compound": "COc1ccc(C(=O)/C=C/c2ccc(OC3CSC3)cc2)cc1OC", "displacement": 2.2}
{"compound": "NC(=O)c1c(NC(=O)c2ccc(F)cc2)sc2c1CCCC2", "displacement": -1.5}
{"compound": "COc1ccc(N2C(=O)C(Cl)=C(Nc3ccc(C)cc3)C2=O)cc1", "displacement": -24.9}
{"compound": "O=P(O)(Oc1cccc(Cl)c1)Oc1cccc(Cl)c1", "displacement": 14.6}
{"compound": "CC(=O)NC(n1c(SCc2ccccc2)nc2ccccc21)C(Cl)(Cl)Cl", "note": "(stereo not drawn)", "displacement": 8.3}
{"compound": "CCOC(=O)C1=C(C)N=C2SCC(=O)N2C1c1ccc(OC)c2ccccc12", "note": "(stereo not drawn)", "displacement": -4.6}
{"compound": "O=C(c1ccc2ccccc2c1)N1CCN(c2ccc([N+](=O)[O-])cc2)CC1", "displacement": 15.6}
{"compound": "COc1cc(/C=C2/C(=O)NN(c3cccc(Cl)c3)C2=O)c([N+](=O)[O-])cc1OC", "displacement": 0.3}
{"compound": "O=c1[nH]c(/C=C/c2ccccc2)c([N+](=O)[O-])c(=O)[nH]1", "displacement": 18.1}
{"compound": "COc1ccc(/C=C/C(=O)NCC2CCCO2)cc1Br", "note": "(stereo not drawn)", "displacement": 13.6}
{"compound": "COc1ccc([N+](=O)[O-])cc1N1C(=O)C2C3C=CC(C3)C2C1=O", "note": "(stereo not drawn)", "displacement": -11.7}
{"compound": "COc1ccccc1C=C1C(=O)NC(=S)N(c2ccccc2F)C1=O", "displacement": 10}
{"compound": "COc1ccc(Cl)cc1N(CC(=O)NCCSc1nc2ccccc2s1)S(=O)(=O)c1ccccc1", "displacement": 3.4}
{"compound": "O=C1NN(c2ccccc2)C(=O)/C1=C/c1cccn1-c1ccc([N+](=O)[O-])cc1", "displacement": 34.7}
{"compound": "COc1ccc(NC(=O)c2nn3c(C(F)(F)F)cc(-c4ccco4)nc3c2Cl)c(OC)c1", "displacement": -2.5}
{"compound": "CCOCCOC(=O)c1ccc(NC(=O)c2cccc(Br)c2)cc1", "displacement": -6.6}
{"compound": "CC1=C(C(=O)Nc2ccc(C)cc2)C(c2cc(Br)ccc2O)NC(=O)N1", "note": "(stereo not drawn)", "displacement": -1}
{"compound": "Cc1ccccc1NC(=O)C(=O)NCCCN1CCOCC1", "displacement": 9.6}
{"compound": "CC(C)(C)C(O)Cn1c(=N)n(Cc2ccccc2)c2ccccc21", "note": "(stereo not drawn)", "displacement": -6}
{"compound": "CC(=O)Nc1ccccc1C(=O)N1CCN(Cc2ccccc2)CC1", "displacement": 3.3}
{"compound": "O=[N+]([O-])c1ccc(OCCCCCN2CCOCC2)cc1", "displacement": 11.6}
{"compound": "O=C1/C(=C\\c2cccc(O)c2)SC(=S)N1c1cccc(C(F)(F)F)c1", "displacement": 9.3}
{"compound": "O=C(CSc1ccc(Cl)cc1)NCCc1ccc(F)cc1", "displacement": -8.3}
{"compound": "OCCN=Cc1ccc(Cl)cc1Cl", "displacement": -4.2}
{"compound": "COc1cc(/C=C2\\C(=O)NC(=S)N(c3ccc(F)cc3)C2=O)ccc1OCC(=O)O", "displacement": 6.8}
{"compound": "O=C(COc1ccc2ccccc2c1)N1CCN(c2ccccn2)CC1", "displacement": 5.4}
{"compound": "CCC(C)C(NC(=S)Nc1ccccc1)C(=O)O", "note": "(stereo not drawn)", "displacement": 10.2}
{"compound": "O=C(Nc1ccccc1)c1ccccc1C(=O)OCCCCCc1cccs1", "displacement": 1.6}
{"compound": "CC(=O)Nc1ccccc1NC(=O)COc1ccc(C)cc1", "displacement": 5.8}
{"compound": "O=c1/c(=C/c2ccc(O)c(Cl)c2)sc2nc3ccccc3n12", "displacement": 24.9}
{"compound": "CCn1c(C)c(C(=O)O)c2cc(OC)c3ccccc3c21", "displacement": 8.5}
{"compound": "COc1ccc(C(=O)N2CCN(C(=O)c3cccc4ccccc34)CC2)cc1OC", "displacement": -10.3}
{"compound": "Cc1c(Cl)cccc1N=C1NC(=O)/C(=C/c2ccc3c(c2)OCO3)S1", "displacement": -2.5}
{"compound": "Cc1cccc(C(=O)Nc2cccc(S(N)(=O)=O)c2)c1", "displacement": 3.8}
{"compound": "CCCCOC(=O)c1ccc(N2CCOCC2)cc1", "displacement": -3.6}
{"compound": "CC(C)(C)c1ccc(C(=O)N2CCN(C/C=C/c3ccccc3)CC2)cc1", "displacement": 13.1}
{"compound": "COCCN1C(=O)/C(=C2/C(=O)N(CC(N)=O)c3ccccc32)SC1=S", "displacement": -40}
{"compound": "COc1ccc(-c2cn3c(n2)SCC3)cc1", "displacement": -4.2}
{"compound": "C=CCc1cccc2cc(C(=O)Nc3cccc4c3C(=O)c3ccccc3C4=O)c(=O)oc12", "displacement": 1.4}
{"compound": "COc1ccc(Cl)cc1C(=O)Nc1cccc(-c2nc3cc(C)c(C)cc3o2)c1", "displacement": 8.7}
{"compound": "CCOc1ccc2ccc(OCC)c(/C=C3/SC(=S)NC3=O)c2c1", "displacement": -0.8}
{"compound": "Cc1ccc(-c2cc(NC(=O)c3cccs3)n[nH]2)cc1", "displacement": 11}
{"compound": "COc1ccc(NC(=S)NCc2ccc(F)cc2)cc1", "displacement": 14.6}
{"compound": "O=C(NCc1ccc2c(c1)OCO2)c1ccc2c3c(cccc13)CC2", "displacement": -12.3}
{"compound": "CCCCCCC(=O)Nc1nnc(CC(C)C)s1", "displacement": -12.9}
{"compound": "Cc1cc(C)nc(SCC(=O)NC(C)(C)C)n1", "displacement": 3.9}
{"compound": "C=CCN1C(=O)/C(=C\\c2ccc(N(CC)CC)cc2O)SC1=S", "displacement": -39}
{"compound": "COc1cc(OC)c(OC)cc1CN1CCN(Cc2cccn2C)CC1", "displacement": 28.3}
{"compound": "Fc1ccc(-c2noc(-c3ccccc3)n2)cc1", "displacement": -11.5}
{"compound": "O=C(COc1ccc2ccccc2c1)Nc1cccc(Br)c1", "displacement": 3.7}
{"compound": "CCc1ccccc1NC(=O)CC1Nc2cc(C)c(C)cc2NC1=O", "note": "(stereo not drawn)", "displacement": -85}
{"compound": "O=C1NC(=S)N/C1=C\\c1ccccc1", "displacement": 0.7}
{"compound": "O=C1C/C(=C/NCCc2ccc(O)cc2)C(=O)N1", "displacement": 8.5}
{"compound": "COC(=O)C[N+]1=Cc2cc(OC)c(OC)cc2CC1(C)C", "displacement": 1.4}
{"compound": "NC(=O)C1CCN(C(=O)COc2ccccc2)CC1", "displacement": 3.9}
{"compound": "Brc1ccc2ncnc(NCc3ccco3)c2c1", "displacement": 3.1}
